Data from publication PMC12820563, “FoxP3 forms a head-to-head dimer in vivo and stabilizes its multimerization on adjacent microsatellites”.
This is one part of the list.

The sequences below were run against T1, MBP-FoxP1dN (Mus musculus, UniProt P58462 326-579) (assay: PD-seq (MBP pull-down with sequencing); 20 mM Tris-HCl pH 7.5, 100 mM NaCl, 1.5 mM MgCl2, 0.4 uM protein, 0.1 uM dsDNA library, 30 min, room temperature, amylose pull-down; high values mean tight binding). Settings: protein: recombinant; tags: His6-MBP; chain copies: 2; dsDNA, one strand shown.
T1 sequence: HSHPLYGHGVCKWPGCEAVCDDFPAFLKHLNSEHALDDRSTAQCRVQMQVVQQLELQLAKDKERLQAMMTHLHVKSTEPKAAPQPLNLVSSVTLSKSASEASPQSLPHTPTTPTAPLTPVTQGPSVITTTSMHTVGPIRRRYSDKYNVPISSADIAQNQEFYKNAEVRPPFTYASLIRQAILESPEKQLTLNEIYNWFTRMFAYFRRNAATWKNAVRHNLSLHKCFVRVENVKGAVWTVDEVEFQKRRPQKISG
How it was run: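 E. coli-expressed mouse FoxP3 or FoxP1 fragment, N-terminus removed and tagged with His6-MBP, was used at 0.4 µM against 0.1 µM of a Klenow-filled degenerate double-stranded DNA library. After 30 min at room temperature in Tris pH 7.5 buffer with NaCl and MgCl2, complexes were pulled down on amylose resin and washed three times. Binding is pull-down over input reads-per-million enrichment from pooled replicates of the proteinase K-released, PCR-barcoded, Illumina-sequenced DNA.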

Going from “GATGATTGTTCTCCCAGCTGATGAATTATAACGCTCGAGTAAACAAATTTTCCTAATCTTTCTGTTCAAGCGCCATCTAC” to “GATGATTGTTCTCCCAGCTGATGAATTATCCCCCTCGAGTAAACAAATTTTCCTAATCTTTCTGTTCAAGCGCCATCTAC”, the binding signal falls from 0.983 RPM ratio (pull-down/input) to 0.87 RPM ratio (pull-down/input).

Going from “GATGATTGTTCTCCCAGCTGATGAATTGCAGGTCTCGAGTAAACAAATTTTCCTAATCTTTCTGTTCAAGCGCCATCTAC” to “GATGATTGTTCTCCCAGCTGATGAATTGCGGTGCTCGAGTAAACAAATTTTCCTAATCTTTCTGTTCAAGCGCCATCTAC”, the binding signal falls from 0.975 RPM ratio (pull-down/input) to 0.929 RPM ratio (pull-down/input).

Compared with “GATGATTGTTCTCCCAGCTGATGAATTGCCCCGCTCGAGTAAACAAATTTTCCTAATCTTTCTGTTCAAGCGCCATCTAC”, “GATGATTGTTCTCCCAGCTGATGAATTATACTGGTCGAGTAAACAAATTTTCCTAATCTTTCTGTTCAAGCGCCATCTAC” is higher in binding signal: 0.861 RPM ratio (pull-down/input) for the first, 1.03 RPM ratio (pull-down/input) for the second.

Compared with “GATGATTGTTCTCCCAGCTGATGAATTGGGTGTCTCGAGTAAACAAATTTTCCTAATCTTTCTGTTCAAGCGCCATCTAC”, “GATGATTGTTCTCCCAGCTGATGAATTGGTCTGCTCGAGTAAACAAATTTTCCTAATCTTTCTGTTCAAGCGCCATCTAC” is lower in binding signal: 0.801 RPM ratio (pull-down/input) for the first, 0.784 RPM ratio (pull-down/input) for the second.

First: GATGATTGTTCTCCCAGCTGATGAATTTTTTTACTCGAGTAAACAAATTTTCCTAATCTTTCTGTTCAAGCGCCATCTAC
Second: GATGATTGTTCTCCCAGCTGATGAATTTCTCCCATCGAGTAAACAAATTTTCCTAATCTTTCTGTTCAAGCGCCATCTAC
The binding signal of the first is higher: 0.958 RPM ratio (pull-down/input) for the first, 0.923 RPM ratio (pull-down/input) for the second.

Going from “GATGATTGTTCTCCCAGCTGATGAATTGTCTTTGTCGAGTAAACAAATTTTCCTAATCTTTCTGTTCAAGCGCCATCTAC” to “GATGATTGTTCTCCCAGCTGATGAATTATGGATATCGAGTAAACAAATTTTCCTAATCTTTCTGTTCAAGCGCCATCTAC”, the binding signal falls from 1.17 RPM ratio (pull-down/input) to 1.07 RPM ratio (pull-down/input).

Compared with “GATGATTGTTCTCCCAGCTGATGAATTCATCATTTCGAGTAAACAAATTTTCCTAATCTTTCTGTTCAAGCGCCATCTAC”, “GATGATTGTTCTCCCAGCTGATGAATTGGTAGACTCGAGTAAACAAATTTTCCTAATCTTTCTGTTCAAGCGCCATCTAC” is lower in binding signal: 0.999 RPM ratio (pull-down/input) for the first, 0.832 RPM ratio (pull-down/input) for the second.

Compared with “GATGATTGTTCTCCCAGCTGATGAATTAGAGGCGTCGAGTAAACAAATTTTCCTAATCTTTCTGTTCAAGCGCCATCTAC”, “GATGATTGTTCTCCCAGCTGATGAATTACCGCCGTCGAGTAAACAAATTTTCCTAATCTTTCTGTTCAAGCGCCATCTAC” is lower in binding signal: 1.11 RPM ratio (pull-down/input) for the first, 0.907 RPM ratio (pull-down/input) for the second.

Going from “GATGATTGTTCTCCCAGCTGATGAATTTGGAATTTCGAGTAAACAAATTTTCCTAATCTTTCTGTTCAAGCGCCATCTAC” to “GATGATTGTTCTCCCAGCTGATGAATTGACGGGGTCGAGTAAACAAATTTTCCTAATCTTTCTGTTCAAGCGCCATCTAC”, the binding signal falls from 0.923 RPM ratio (pull-down/input) to 0.844 RPM ratio (pull-down/input).

Going from “GATGATTGTTCTCCCAGCTGATGAATTAGCACCATCGAGTAAACAAATTTTCCTAATCTTTCTGTTCAAGCGCCATCTAC” to “GATGATTGTTCTCCCAGCTGATGAATTATTCATATCGAGTAAACAAATTTTCCTAATCTTTCTGTTCAAGCGCCATCTAC”, the binding signal rises from 0.966 RPM ratio (pull-down/input) to 1.19 RPM ratio (pull-down/input).

First: GATGATTGTTCTCCCAGCTGATGAATTAATGTATTCGAGTAAACAAATTTTCCTAATCTTTCTGTTCAAGCGCCATCTAC
Second: GATGATTGTTCTCCCAGCTGATGAATTCTGGCACTCGAGTAAACAAATTTTCCTAATCTTTCTGTTCAAGCGCCATCTAC
The binding signal of the first is higher: 1.47 RPM ratio (pull-down/input) for the first, 0.805 RPM ratio (pull-down/input) for the second.

Going from “GATGATTGTTCTCCCAGCTGATGAATTTGTTAACTCGAGTAAACAAATTTTCCTAATCTTTCTGTTCAAGCGCCATCTAC” to “GATGATTGTTCTCCCAGCTGATGAATTCACGTATTCGAGTAAACAAATTTTCCTAATCTTTCTGTTCAAGCGCCATCTAC”, the binding signal falls from 1.28 RPM ratio (pull-down/input) to 1.09 RPM ratio (pull-down/input).

First: GATGATTGTTCTCCCAGCTGATGAATTCACCTGGTCGAGTAAACAAATTTTCCTAATCTTTCTGTTCAAGCGCCATCTAC
Second: GATGATTGTTCTCCCAGCTGATGAATTTCAGGGGTCGAGTAAACAAATTTTCCTAATCTTTCTGTTCAAGCGCCATCTAC
The binding signal of the first is higher: 0.796 RPM ratio (pull-down/input) for the first, 0.746 RPM ratio (pull-down/input) for the second.

First: GATGATTGTTCTCCCAGCTGATGAATTAGCGCGGTCGAGTAAACAAATTTTCCTAATCTTTCTGTTCAAGCGCCATCTAC
Second: GATGATTGTTCTCCCAGCTGATGAATTTAAAGGATCGAGTAAACAAATTTTCCTAATCTTTCTGTTCAAGCGCCATCTAC
The binding signal of the first is lower: 0.806 RPM ratio (pull-down/input) for the first, 0.866 RPM ratio (pull-down/input) for the second.

Going from “GATGATTGTTCTCCCAGCTGATGAATTATTAATGTCGAGTAAACAAATTTTCCTAATCTTTCTGTTCAAGCGCCATCTAC” to “GATGATTGTTCTCCCAGCTGATGAATTTGGCAATTCGAGTAAACAAATTTTCCTAATCTTTCTGTTCAAGCGCCATCTAC”, the binding signal falls from 1.35 RPM ratio (pull-down/input) to 0.931 RPM ratio (pull-down/input).

Compared with “GATGATTGTTCTCCCAGCTGATGAATTTAGGGCATCGAGTAAACAAATTTTCCTAATCTTTCTGTTCAAGCGCCATCTAC”, “GATGATTGTTCTCCCAGCTGATGAATTCGTTGAATCGAGTAAACAAATTTTCCTAATCTTTCTGTTCAAGCGCCATCTAC” is lower in binding signal: 1.04 RPM ratio (pull-down/input) for the first, 0.916 RPM ratio (pull-down/input) for the second.

Going from “GATGATTGTTCTCCCAGCTGATGAATTCGAACAATCGAGTAAACAAATTTTCCTAATCTTTCTGTTCAAGCGCCATCTAC” to “GATGATTGTTCTCCCAGCTGATGAATTTCGAATCTCGAGTAAACAAATTTTCCTAATCTTTCTGTTCAAGCGCCATCTAC”, the binding signal falls from 1.12 RPM ratio (pull-down/input) to 0.83 RPM ratio (pull-down/input).

Compared with “GATGATTGTTCTCCCAGCTGATGAATTCCTAGAGTCGAGTAAACAAATTTTCCTAATCTTTCTGTTCAAGCGCCATCTAC”, “GATGATTGTTCTCCCAGCTGATGAATTCAAGAGCTCGAGTAAACAAATTTTCCTAATCTTTCTGTTCAAGCGCCATCTAC” is lower in binding signal: 0.82 RPM ratio (pull-down/input) for the first, 0.778 RPM ratio (pull-down/input) for the second.

Going from “GATGATTGTTCTCCCAGCTGATGAATTATAGTATTCGAGTAAACAAATTTTCCTAATCTTTCTGTTCAAGCGCCATCTAC” to “GATGATTGTTCTCCCAGCTGATGAATTTGGCAGTTCGAGTAAACAAATTTTCCTAATCTTTCTGTTCAAGCGCCATCTAC”, the binding signal falls from 1.22 RPM ratio (pull-down/input) to 0.918 RPM ratio (pull-down/input).

Going from “GATGATTGTTCTCCCAGCTGATGAATTCCCAGGTTCGAGTAAACAAATTTTCCTAATCTTTCTGTTCAAGCGCCATCTAC” to “GATGATTGTTCTCCCAGCTGATGAATTAACGCGCTCGAGTAAACAAATTTTCCTAATCTTTCTGTTCAAGCGCCATCTAC”, the binding signal rises from 0.73 RPM ratio (pull-down/input) to 0.91 RPM ratio (pull-down/input).
